Reference: PubChem BioAssay AID1768 (National Center for Advancing Translational Sciences (NCATS), 2009)
The campaign covered roughly 270,000 compounds. About 620 (0.23%) were called active. This list was built around the results that the source calls inconclusive (neither active nor inactive); the mix of calls is not that of the screen. Calls follow the shape of the dose curve; as a rule, active = well fitted inhibition curve with a large enough effect in the polarisation, with a control signal flat (not every such curve was filed as active); inconclusive = small, poorly fitted or top-dose-only effect, or effect the other way, or a change in a side signal; inactive = no such curve, though single readings can be large or run the other way; the % refers to the polarisation. Potencies of inconclusive entries are doubtful fits and often do not repeat. “Side channel” marks fits to a control or component signal instead of the main read-out.

What follows are molecules tested against Menin (Homo sapiens) (UniProt O00255) (assay: qHTS Assay for Inhibitors Targeting the Menin-MLL Interaction in MLL Related Leukemias: Competition With Texas Red Labeled MLL-derived Mutant Peptide). Conditions: fluorescence polarization; FP activity change, negative = inhibition: at 61.6 µM (top of the series).
For FP activity change, negative = inhibition in this document: % of control where 0% means no effect.
Potency is read from the fitted curve at half-maximal effect; tags tell the direction and shape of the fitted curve or compound fluorescence and quenching.

Chain of UniProt O00255 (O00255 whole entry, looked up): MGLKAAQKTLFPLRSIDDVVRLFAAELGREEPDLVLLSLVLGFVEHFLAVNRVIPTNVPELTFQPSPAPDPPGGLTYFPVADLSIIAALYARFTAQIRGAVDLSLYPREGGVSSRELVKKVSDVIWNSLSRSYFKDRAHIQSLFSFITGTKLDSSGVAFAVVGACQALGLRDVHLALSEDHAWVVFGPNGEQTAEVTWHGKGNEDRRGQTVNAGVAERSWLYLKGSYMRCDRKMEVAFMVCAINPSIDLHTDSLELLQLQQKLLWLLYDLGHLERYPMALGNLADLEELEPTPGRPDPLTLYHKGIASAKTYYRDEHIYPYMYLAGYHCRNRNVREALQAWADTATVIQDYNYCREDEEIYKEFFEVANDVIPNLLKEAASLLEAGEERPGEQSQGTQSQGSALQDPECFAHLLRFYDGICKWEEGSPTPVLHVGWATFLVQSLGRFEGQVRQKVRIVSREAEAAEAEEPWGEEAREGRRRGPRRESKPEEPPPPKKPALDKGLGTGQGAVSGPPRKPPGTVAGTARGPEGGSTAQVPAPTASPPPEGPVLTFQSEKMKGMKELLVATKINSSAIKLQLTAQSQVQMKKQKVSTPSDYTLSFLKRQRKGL

Row | Structure (SMILES) | Potency | FP activity change, negative = inhibition
1 | O=C(c1cnc(Cl)c(Cl)c1)N1CCC(Cc2ccccc2)CC1 | inconclusive: 25.1 µM [fluorescent, side channel, partial curve] | 
2 | CC(C)C(=O)Nc1cccc(C(=O)Nc2ccc(S(=O)(=O)N3CCOCC3)cc2)c1 | inconclusive: 39.8 µM [quencher, side channel, single point] | 
3 | COc1cccc(Nc2nnc(SCN3C(=O)c4ccccc4C3=O)s2)c1 | inconclusive: 39.8 µM [quencher, side channel, single point] | 
4 | Cc1ccc(C)c(Cn2nnc3c(=O)[nH]c(C4CCCN(C(=O)CC(C)C)C4)nc32)c1 (stereo not given) | inconclusive: 10 µM [fluorescent, side channel, partial curve] | 
5 | Cc1cc(C)c2c(c1)c1nnc(SCCN3CCCCC3)nc1n2C | inconclusive: 10 µM [inhibitor, partial curve] | 
6 | O=c1c(-c2ccccc2)coc2cc(O)cc(O)c12 | inconclusive: 10 µM [quencher, side channel, partial curve] | 
7 | Cc1c(Cl)cccc1NC(=S)N=Nc1c(O)n(CN2CCOCC2)c2ccccc12 | inconclusive: 20 µM [quencher, side channel, single point] | 
8 | O=C(CCCN1C(=O)/C(=C/c2cccs2)SC1=S)Nc1cccc(C(=O)O)c1 | inconclusive: 28.2 µM [quencher, side channel, single point] | 
9 | Nc1nc(N)c(N=O)c(OCC2CCCCC2)n1 | inconclusive: 39.8 µM [inhibitor, partial curve] | 
10 | CCc1cccc2c(C(=O)CSc3nncn3-c3ccccc3OC)c[nH]c12 |  | inactive: -4.03%
11 | COc1ccc(NC(=O)c2ccc(-c3ccc([N+](=O)[O-])cc3)o2)cc1OC | inconclusive: 35.5 µM [quencher, side channel, single point] | 
12 | O=c1oc(-c2ccc([N+](=O)[O-])cc2)nc2ccccc12 | inconclusive: 10 µM [quencher, side channel, partial curve] | 
13 | Cc1ccc(C)c(-c2cc(C(=O)NNC(=S)NCC(C)C)c3ccccc3n2)c1 | inconclusive: 28.2 µM [quencher, side channel, single point] | 
14 | CCOC(=O)c1sc(Nc2nc3cc4c(cc3s2)OCO4)cc1C | inconclusive: 8.91 µM [quencher, side channel, partial curve] | 
15 | CC(=O)N1CC=C2C(C#N)=C(N)C(C#N)(C#N)[C@H](c3ccoc3)[C@H]2C1 |  | inactive: -3.16%
16 | CC(=O)c1ccc(N2CCN(C(=O)c3ccco3)CC2)c(F)c1 | inconclusive: 39.8 µM [inhibitor, single point] | 
17 | Cc1noc(NS(=O)(=O)c2ccc(N/C=C\C(=O)c3ccc4c(c3)OCO4)cc2)c1C | inconclusive: 15.8 µM [quencher, side channel, partial curve] | 
18 | Cc1ccc(-c2csc(NC(=O)CSc3nc(C)cc(=O)[nH]3)n2)cc1 | inconclusive: 28.2 µM [quencher, side channel, single point] | 
19 | O=c1c(-c2ccc(F)cc2)nc2cnc(Nc3ccccc3)nc2n1C[C@H]1CCCO1 | inconclusive: 4.47 µM [quencher, side channel, full curve, poor fit] | 
20 | Cc1c(-c2ccc(Cl)cc2)noc1C1CCN(CCc2ccccc2)CC1 | inconclusive: 28.2 µM [fluorescent, side channel, partial curve] | 
21 | COc1ccc(-c2nnc(SC(C)C(=O)NNC(=O)c3ccc(C)cc3)o2)cc1 (stereo not given) |  | inactive: -1.83%
22 | Cc1ccc(O)c(N/C=C/C(=O)c2ccc(F)cc2)c1 | inconclusive: 28.2 µM [quencher, side channel, single point] | 
23 | Cc1c(C)n(Cc2ccc(Cl)cc2)c2ccc(C(=O)NCCCN3CCOCC3)cc12 | inconclusive: 10 µM [inhibitor, full curve, poor fit] | 
24 | O=C(CC1C(=O)NCCN1CC1CCCCC1)NCCc1ccc(F)cc1 (stereo not given) | inconclusive: 17.8 µM [fluorescent, side channel, partial curve] | 
25 | COc1cccc(CN2CCN(Cc3ccccc3C(F)(F)F)CC2)c1 | inconclusive: 22.4 µM [fluorescent, side channel, single point] | 
26 | O=C(Cn1c2ccc(F)cc2c2nc3n(c(=O)c21)CCS3)Nc1ccc(Cl)cc1F | inconclusive: 10 µM [fluorescent, side channel, partial curve] | 
27 | Cc1ccc(N=Nc2c(=O)[nH]n3c(=O)cc(C)[nH]c23)cc1 | inconclusive: 12.6 µM [quencher, side channel, partial curve] | 
28 | COc1ccc(-n2cc(CNCC3CC(=O)N(C4CC4)C3)c(-c3ccccc3Cl)n2)cc1 (stereo not given) | inconclusive: 2.51 µM [fluorescent, side channel, full curve] | 

Row | Structure (SMILES) | Potency | FP activity change, negative = inhibition
29 | Cc1ccc2sc(NNC(=O)c3cc(-c4cccs4)nc4ccccc34)nc2c1C | inconclusive: 22.4 µM [quencher, side channel, partial curve] | 
30 | CC(=O)Nc1ccc(S(=O)(=O)n2cnc3cc(C)c(C)cc32)cc1 | inconclusive: 39.8 µM [quencher, side channel, single point] | 
31 | O=C(CN(C(=O)CCC(=O)Nc1nccs1)c1cccc(F)c1)NCCc1ccccc1 | inconclusive: 31.6 µM [fluorescent, side channel, partial curve] | 
32 | O=C(COc1ccc(Cl)cc1Cl)NN1C(=O)/C(=C\c2ccc(Cl)cc2)SC1=S | inconclusive: 7.08 µM [quencher, side channel, single point] | 
33 | O=[N+]([O-])c1ccc(O)c(/C=N/n2cnc3ccccc32)c1 | inconclusive: 14.1 µM [quencher, side channel, partial curve] | 
34 | O=C(N/N=C/C=C/c1ccc2c(c1)OCO2)c1ccc([N+](=O)[O-])cc1 | inconclusive: 11.2 µM [quencher, side channel, partial curve] | 
35 | O=C(Nc1ccccc1)Nc1cccc(C(F)(F)F)c1 | inconclusive: 11.2 µM [quencher, side channel, partial curve] | 
36 | C=CCn1c(CCCOc2ccc(Cl)cc2Cl)nnc1SCC(=O)Nc1nccs1 | inconclusive: 39.8 µM [fluorescent, side channel, partial curve] | 
37 | CCc1nnc(NS(=O)(=O)c2ccc(N=Cc3c(C)[nH]n(-c4ccc(Cl)cc4)c3=O)cc2)s1 | inconclusive: 7.94 µM [quencher, side channel, partial curve] | 
38 | Cn1c(=O)c2c(nc(N3CCC(C(N)=O)CC3)n2CCSc2nc3ccccc3s2)n(C)c1=O | inconclusive: 10 µM [inhibitor, partial curve] | 
39 | CN(C)CCNC(=O)/C=C/c1cn(-c2ccccc2)nc1-c1cc2ccccc2oc1=O | inconclusive: 20 µM [fluorescent, side channel, partial curve] | 
40 | Cc1ccc(OCc2nc3c4c(ncn3n2)-c2ccccc2CC42CCCC2)cc1 |  | inactive: -6.37%
41 | CCN(CC)P(=O)(Nc1ccccc1Br)c1ccc(N(C)C)cc1NC(=O)c1ccco1 (stereo not given) | inconclusive: 4.47 µM [fluorescent, side channel, full curve, poor fit] | 
42 | CCOc1c(Cl)cc(CNc2ccc(N3CCCC3)cc2)cc1OC | inconclusive: 11.2 µM [inhibitor, partial curve] | 
43 | COc1ccc(Nc2c3c(nc4ccc(C)cc24)CCC3)cc1 | inconclusive: 10 µM [inhibitor, partial curve, poor fit] | 
44 | Cc1cc(C(=O)Nc2sc3c(c2C#N)CCC(C)C3)cs1 (stereo not given) | inconclusive: 28.2 µM [inhibitor, single point] | 
45 | CCOC(=O)C1(CC2CCCCO2)CCN(Cc2nc(C(C)C)cs2)CC1 (stereo not given) | inconclusive: 17.8 µM [fluorescent, side channel, partial curve] | 
46 | COc1cc(NC(=O)C2=C(N3CCOCC3)/C(=C\c3ccc(N(C)C)cc3)CCC2)cc(OC)c1OC | inconclusive: 25.1 µM [quencher, side channel, single point] | 
47 | S=C(NCc1ccco1)N1CCN(c2ccc(Cl)cc2)CC1 | inconclusive: 25.1 µM [quencher, side channel, partial curve] | 
48 | COC(=O)c1cccc(NC(=O)CN2CCN(Cc3ccccc3)CC2)c1 | inconclusive: 35.5 µM [fluorescent, side channel, single point] | 
49 | COc1ccc(NC(=O)CSc2ccccc2)c([N+](=O)[O-])c1 | inconclusive: 3.16 µM [inhibitor, partial curve] | 
50 | COc1c(O)cc2oc(-c3ccc(O)c(O)c3)cc(=O)c2c1O | inconclusive: 12.6 µM [quencher, partial curve] | 
51 | CCN(C(=O)Nc1ccccc1)c1ccccc1 | inconclusive: 39.8 µM [inhibitor, single point] | 
52 | CC(C)OC(=O)C(C)(C)Oc1ccc(C(=O)c2ccc(Cl)cc2)cc1 | inconclusive: 8.91 µM [fluorescent, side channel, partial curve] | 
53 | COc1cccc(-c2csc(NC(=O)Oc3ccccc3)n2)c1 | inconclusive: 35.5 µM [quencher, side channel, single point] | 
54 | Cc1cccc(CNc2nc(-c3ccc4c(c3)OCO4)nc3ccccc23)c1 | inconclusive: 7.08 µM [quencher, side channel, partial curve] | 
55 | O=C(CN1C(=O)CCC1=O)Nc1nc(-c2ccc(Oc3ccccc3)cc2)cs1 | inconclusive: 39.8 µM [quencher, side channel, single point] | 
